# Where a structure was tested more than once in an assay, its records may differ in their call.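 Note: values are percent growth. 100 is the growth of untreated cells, values between 100 and 0 indicate rising inhibition; between -100 and 0 indicates cell death.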 A number of entries come with more than one value. Only these are listed. How the source made its calls: active means growth percent below 10; inactive means the rest. There may be further records. These are repeated runs of one drug, at its own concentration, as given; each value is one run. Additions like (4×) say how often a value occurs here.
# System: HL-60(TB) leukemia
# Test: NCI-60 one-dose screen, 48 h (100 = growth as untreated, 0 = no growth, -100 = all killed)
# Details: 2.5 mM
smiles,measurement,setting,value
O=c1[nH]cc(F)c(=O)[nH]1,growth,runs of 1991,"inactive: 13.7, 23.8, 20.9, 13.4, 55.6, 22.7, 11.1 (2×), 11.9, 40.4, 27.1% and active: 8.86, -4.67, -6.35, 6.68, 6.27, 9.78%"
same,growth,runs of 1992,"inactive: 27.9, 14 (3×), 12.8, 15.6, 15.8, 25.6, 28.8, 17.3, 11.8 (2×), 39.6, 21.9, 37.7, 18.2 (2×), 16.9, 10.5 (2×), 13.9, 21, 11.6, 19.4 (2×), 33.5, 20.8, 16.5 (2×), 19.8 (2×), 22.1, 30.1, 16.2, 15.9, 13.7, 21.1, 19.3, 21.6 (2×), 14.7, 13.6, 17.8, 20.1, 10.8 (2×), 23.1, 11.3, 18.9, 33, 12.4, 55.9, 20.9, 43.6, 10.7, 11.2, 20.3% and active: 2.73, -7.96, 5.31 (2×), 7.3, 7.75, -10.5 (2×), 4.39, -2.87, 1.87, -9.59, 6.25, -9.65, 0.918, 0.204, 0.046, 7.06, -11.2, 8.99, -13.3, 8.84, 4.56, -6.35, 2.48, 4.06, 8.13, -8.41, 5.18, 7.84, 1.01, 6.4, 7.29, 6.73, 4.42, 6.15, -0.21, 2.05, 3.58, 7.35, -10.1, -77.6, 6.87, -2.1, 9.5, 5.7, 5.78, 5.76, 6.01, 7.62, -1.39, -11.5, 8.11, 5.28, 4.03, 9.71, 5.8, 8.76, 3.15%"
same,growth,runs of 1993,"inactive: 17.5, 13.5, 59.3, 25.5, 11.7, 28.2, 11.6, 16.7, 17.9, 36.8, 10.9, 47.7, 32.8, 16, 41.5, 92.3, 27.2, 87.1, 38.5, 10.3, 18.7, 15.2, 12.5% and active: 4.34, 3.7, 9.13, 7.01, 9.63, -33.9, -10.9, 4.92, 5.29, 4.66, -1.54, 4.07, -44.3, 3.64, -12.2, 4.76, -18.8, 9.4, 9.41, 0.702, -0.162, -20.2, -17.7, 0.868, -17.9, 2.96%"
same,growth,runs of 1994,"inactive: 33.9, 10.7, 12.6, 42.5, 25.7, 95.3, 65.8, 13.4, 10.1 (2×), 15.6, 43.5, 10, 22.2, 14.8, 13.3, 25.3, 22.8% and active: -17.7, 4.69, -2.61, 6.79, -27.3, 9.51, -14.6, -11.4, 8.18, -11.3, 2.56, 3.34, -10.4%"
same,growth,runs of 1995,"active: 8.89, 8.32, -1.01, -16.7, -11.3, 8.4, 2.58, -6.78, -6.12, -15, -24, -7.51, 8.67, -22.7, -51.4, 9.01, 4.37, 5.06, -44.1, -25.1, -20.3, 8.95, 7.2, -31, -18.8, 5.59, -48.6, -15.2% and inactive: 20.4, 16.5, 15.9, 40.4, 21.8, 10, 14.5%"
same,growth,runs of 1996,"inactive: 22.9, 54, 13.9, 13.2, 71.8, 12, 16.1% and active: -50.8, 2.43, -18.6, -5.51, 2.76, -19.9, 1.39, -29.8, -24.2, -54.7, -24, -19.1, -23, -46.9, 6.38, -20.1, 6.28, -29.2, 6.61, -43.6, -40.5, -23.2, -10.5, -23.1, -8.28, 1.52, 0.777, -74.6%"
same,growth,runs of 1997,"active: -22.7, 1.22, -33.8, -3.6, 6.24, 6.03, -56.8, 3.43, 8.27, 7.36, 0.952, 9.67, -55.7% and inactive: 10.8, 10.3, 37.1, 10.5, 15.8, 34.1, 16.5, 19.5, 23.4, 35.4, 24.9, 44.9, 20.6, 16.6%"
same,growth,runs of 1998,"active: 6.88, -24.2, -15.8, -1.04, -16.5, -2.85, -8.97% and inactive: 72.7, 22.8, 49.3, 41.9, 28.3 (2×), 28.1, 18.3, 90.2, 62.4, 14.3, 40.4%"
same,growth,runs of 1999,"inactive: 27.7, 18.4, 10.5, 21.6, 13.7% and active: 2.85, -44.1, -32.7, -4.13, -79.6, -29.3, 0.026, -8.33, -73.6, 2.35, -49.9, 1.74%"
same,growth,runs of 2000,"active: -34.1, -24.4, 4.57, -43.6%"

# From PubChem BioAssay (NCI)
